# Assay results taken from PubChem BioAssay AID1347073 (National Center for Advancing Translational Sciences (NCATS), 2019).
# The whole screen tested about 45,000 compounds, of which about 200 (0.44%) were called active. About 7% were inconclusive and are not listed. Calls follow the shape of the dose curve; as a rule, active = well fitted activation curve with a large enough effect; inconclusive = small, poorly fitted or top-dose-only effect; inactive = no such curve, though single readings can be large or run the other way. The list shows a part of the results.
# Assay: qHTS of TDP-43 Inhibitors: NCGC Sytravon Library Screen; also: 0% is about no effect; nearly all actives have a fitted effect of over 55% in size
# Conditions: yeast TDP-43 toxicity rescue, BacTiter-Glo growth, 24 h; series mostly up to 46.1 µM; growth rescue (activation): at the top concentration
# Procedure, shortened: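 TDP-43-expressing yeast, pregrown in raffinose, seeded at OD600 0.02 in galactose medium with compound for 24 hr at 30 deg C. Growth read by BacTiter-Glo luminescence, so rescue of toxicity appears as activation.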
row,SMILES,growth rescue (activation)
1,Cc1ccccc1-n1cc(CNC(=O)C2CCC(=O)N(C3CC3)C2)cn1 (configuration not stated),inactive: -8.24%
2,O=C(O)c1cc(-c2cccs2)nn1-c1ccc(F)cc1,inactive: -0.226%
3,CCOc1ccc(N(CCCCO)C(=S)NC(=O)c2ccc(C)c(Br)c2)cc1,inactive: 10.6%
4,N#Cc1ccc(OCc2c(-c3ccccc3)nnn2CC(=O)O)cc1,inactive: 8.7%
5,COc1ccc(OC)c(NC(=O)C2(C)CCN2Cc2ccsc2)c1 (configuration not stated),inactive: 1.54%
6,CC(=O)Nc1cccc(-c2ccnc3c2CC(C)(C(=O)NCc2cccs2)O3)c1 (configuration not stated),inactive: 3.17%
7,Cc1ccc(C(=O)NCCc2ccc(S(N)(=O)=O)cc2)o1,inactive: -1.35%
8,C=CCC(C(=O)NC(C)c1ccccc1)C(=O)NC(C)c1ccccc1 (configuration not stated),inactive: -2.11%
9,O=C(Nc1ccc(Cl)cc1)Nc1nnc(/C=C/c2ccccc2)s1,inactive: 19.2%
10,CC(=O)Nc1ccc(NC(=O)CCNS(=O)(=O)c2cccc3nsnc23)cc1,inactive: 6.77%
11,COc1cc(/C=C2/C(=O)ON=C2C)cc(Cl)c1O,inactive: -11.3%
12,CC(Sc1ccc(Cl)cc1)C(=O)Nc1ccccc1-c1ccccc1 (configuration not stated),inactive: -10.1%
13,CCOc1ccc2c(c1)C(c1ccc(C)o1)=NNC(c1ccncc1)=N2,inactive: 9.88%
14,N#C/C(=C/C1=C(N2CCOCC2)C(=C/c2ccccc2)/CC1)C(=O)Nc1ccccc1F,inactive: 12.1%
15,CCOC(=O)c1cc(C#N)c(N2CCN(c3ccccn3)CC2)nc1-c1ccccc1,inactive: -20.7%
16,Cc1ccc2nc(NC(=O)C3CCCN3C(=O)OC(C)(C)C)sc2c1 (configuration not stated),inactive: 18.9%
17,FC(F)(F)c1nnc(-c2ccccc2)nc1N1CCCC1,inactive: 4.06%
18,Cc1c(C(=O)OCC(=O)NCC2CCCO2)oc2ccccc12 (configuration not stated),inactive: 1.36%
19,COc1ccc(C(C)=O)cc1Cn1nc(C)c([N+](=O)[O-])c1C,inactive: 14.8%
20,Cc1cc(NC(=O)COC(=O)C2CC(=O)N(c3ccc(Br)cc3)C2)no1 (configuration not stated),inactive: 4.18%
21,O=C(NCc1ccc(F)c(F)c1)C1Cc2c(-c3ccc4c(c3)OCO4)ccnc2O1 (configuration not stated),inactive: -1.4%
22,CC1=Nc2ccc3ccccc3c2C1(C)C,inactive: 25.3%

row,SMILES,growth rescue (activation)
1,CCOc1c(Cl)cc(CNc2nnnn2C)cc1OC,inactive: 7.95%
2,CC(=O)N(C)c1ccc(NS(=O)(=O)c2cc(Cl)ccc2Cl)cc1,inactive: 4.76%
3,CC(=O)OC(C)C(=O)NS(=O)(=O)c1ccc(C)cc1 (configuration not stated),inactive: -12.7%
4,CC(=O)c1cccc(Nc2c([N+](=O)[O-])c(=O)oc3ccccc23)c1,inactive: 4.96%
5,O=C(N/N=C/c1cc([N+](=O)[O-])ccc1O)c1cc(-c2ccccc2)nc2ccccc12,inactive: 22.3%
6,Cn1c(=O)[nH]c(=O)c2c1nc(N1CCOCC1)n2CCc1ccccc1,inactive: 0.517%
7,COc1ccc(CNC(=O)Cc2csc3ccccc23)cc1OC,inactive: 10.6%
8,COC(=O)c1ccc(COc2ccc(-c3nnn(CC(N)=O)n3)cc2)cc1,inactive: 11.2%
9,COc1cc(Br)c(/C=C(\C#N)c2nc3ccccc3[nH]2)cc1OC,inactive: -1.29%
10,O=C(CNC(=O)/C(=C\c1ccccc1)NC(=O)c1ccc(Br)cc1)OCc1ccccc1,inactive: 16%
11,COc1ccc([N+](=O)[O-])cc1NC(=O)Cc1ccc(C)cc1,inactive: -0.0452%
12,CC(NCc1ccc(OCc2ccc(Cl)cc2)cc1)C(O)c1ccccc1 (configuration not stated),inactive: 26.6%
13,O=C(Cc1ccccc1)NNC(=O)c1ccc(NC(=O)c2ccccc2)cc1,inactive: -3.43%
14,COc1ccc([N+](=O)[O-])cc1NC(=O)c1cn(-c2ccc(C)c(C)c2)c(=O)c2ccccc12,inactive: -1.36%
15,CC1CCCCN1CC(=O)Nc1ccc2c(c1)OC(F)(F)O2 (configuration not stated),inactive: -4.06%
16,O=C(OCC(=O)c1c[nH]c2ccccc12)c1ccc([N+](=O)[O-])s1,inactive: -93.5%
17,O=C(Nc1cc(S(=O)(=O)N2CCOCC2)ccc1Cl)c1ccncc1,inactive: 0.0883%
18,Cc1oc2nc(SCCCC(=O)NCCCO)nc(N)c2c1C,inactive: -0.704%
19,Cc1c(N2C(=O)/C(=C/c3ccc(N(C)C)cc3)N(C)C2=S)c(=O)n(-c2ccccc2)n1C,inactive: -16.3%
20,COc1ccc(CN(C)CC(=O)NC(=O)NCc2ccccc2)c(OC)c1,inactive: -7.39%
21,COc1ccc(Cc2nnc(NC(=O)c3cccc([N+](=O)[O-])c3)s2)cc1,inactive: -4.66%
22,O=C1c2ccccc2C2=Nc3ccccc3SC(c3ccc(Cl)cc3)C12 (configuration not stated),inactive: 22.1%

row,SMILES,growth rescue (activation)
1,CC(NC(=O)CSc1nc(=O)cc(N)n1-c1ccccc1)c1ccccc1 (configuration not stated),inactive: -15%
2,O=C(NC1CC2CCCC(C1)N2Cc1ccccc1)C1CCCCC1 (configuration not stated),inactive: 5.09%
3,CC(C(=O)N1CCc2ccccc21)N1CCN(Cc2ccc(Cl)cc2)CC1 (configuration not stated),inactive: -6.99%
4,CCOC(=O)c1c(-c2ccccc2)csc1NC(=O)/C(C#N)=C/c1ccc(OC)c(OC)c1,inactive: 8.28%
5,Cc1[nH][nH]c(=O)c1C(c1ccc(N(C)C)c(Br)c1)c1c(C)[nH][nH]c1=O,inactive: -9.93%
6,N#C/C(=C\c1c(Oc2ccccc2Cl)nc2ccccn2c1=O)C(=O)NC1CCS(=O)(=O)C1 (configuration not stated),inactive: 3.81%
7,O=C(CO/N=C/c1ccccc1)Nc1c(F)c(F)c(F)c(F)c1F,inactive: 12.6%
8,Cc1ccc(NC(=O)COC(=O)/C=C/c2ccccc2)cc1S(=O)(=O)N1CCOCC1,inactive: 11.2%
9,CC1CCc2cc(F)ccc2N1S(=O)(=O)c1ccc(Cl)nc1 (configuration not stated),inactive: 30.3%
10,O=C(c1ccc(F)cc1)C1CCN(C(=O)Nc2ccc(F)cc2F)CC1,inactive: 30.2%
11,O=C(O)c1cc([N+](=O)[O-])cc2c1nnn2O,inactive: -0.141%
12,Cc1nc(C)c(C(=O)N/N=C/c2c[nH]c3ccccc23)s1,inactive: 4.68%
13,O=C(COC(=O)C1CC1)Nc1ccc(N=Nc2ccccc2)cc1,inactive: 15.8%
14,CC1CCN(CCC(=O)Nc2ccccc2)CC1,inactive: 2.37%
15,CN(C)S(=O)(=O)NCCNc1ccc(C(F)(F)F)cc1[N+](=O)[O-],inactive: -23.7%
16,Cc1cc(NC(=O)C2CC2)ccc1NC(=O)c1cccs1,inactive: -23%
17,Oc1ccc(N2CCN(CC(O)c3ccccc3)CC2)cc1 (configuration not stated),inactive: 12.1%
18,O=C(O)C1CSC(c2ccc3c(c2)OCO3)N1 (configuration not stated),inactive: 5.93%
19,Cn1c(N)c(C(=O)COC(=O)/C=C/c2ccccc2)c(=O)n(C)c1=O,inactive: -1.93%
20,CCCCOc1ccc(CNC(=O)C2CCN(c3nnc(-n4cccc4CNc4ccc(C)cc4)s3)CC2)cc1,inactive: 1.36%
21,Cc1ccc(NC(=O)Cc2nnc(SCC(=O)Nc3nncs3)n2C)c(C)c1,inactive: 6.94%
22,CCOC(=O)c1c(NC(=O)C2=C(C)NC(=S)NC2c2ccc(F)cc2F)sc(C)c1C (configuration not stated),inactive: 29.6%

row,SMILES,growth rescue (activation)
1,Cc1cccc(CC2SC(N)=NC2=O)c1 (configuration not stated),inactive: 5.97%
2,CCN(CC)C(=O)C(=O)N/N=C/c1ccc(C(=O)O)cc1,inactive: 8.09%
3,CCCC(C)C(=O)NCc1ccncc1 (configuration not stated),inactive: 5.37%
4,C#CCOC(=O)/C(=C/C=C/c1ccccc1)NC(=O)c1ccccc1,inactive: 2.94%
5,CNC(=O)NC(=O)C(OC(=O)Cc1cccc(C(F)(F)F)c1)c1ccccc1 (configuration not stated),inactive: -13.3%
6,COC(=O)C1=C(C)N(c2ccccc2)C(=S)NC1c1ccccc1C(F)(F)F (configuration not stated),inactive: 20.3%
7,Cc1ccc(C(=O)Nc2ccccc2NC(=O)c2ccc(C)o2)o1,inactive: 14.9%
8,O=C(NNC1OC(CO)C(O)C(O)C1O)c1cccc(Br)c1 (configuration not stated),inactive: 8.25%
9,CC(C)(C)c1ccc(/C=N/N2C(=O)CSC2=S)cc1,inactive: 27%
10,COc1ccc(/C=N\NC(=O)c2cc(O)c(O)c(O)c2)cc1CN1CCN(c2ccc(F)cc2)CC1,inactive: -18.7%
11,C[n+]1cccc(/C=N/Nc2nc(Cl)c(C#N)c(Cl)c2Cl)c1,inactive: 6.62%
12,O=C(NCC(F)(F)F)c1ccc2sc([C@@H]3O[C@H](CO)[C@H](O)[C@H](O)[C@H]3O)nc2c1,inactive: -3.86%
13,CCOc1ccccc1OCCOCCOc1c(Cl)cccc1Cl,inactive: -22.5%
14,O=C(Nc1cccc(S(=O)(=O)N2CCCCC2)c1)Nc1ccc(Cl)cc1Cl,inactive: 18.6%
15,COc1cc(NC(=O)C2(C)CCN2C(=O)C(C)C)cc(OC)c1OC (configuration not stated),inactive: 5.61%
16,O=C(Nc1ccc(S(=O)(=O)N2CCOCC2)cc1)C1CC(=O)N(c2ccc(F)cc2)C1 (configuration not stated),inactive: -8.83%
17,COc1cc(OC)cc(C(=O)OCC(=O)N(C)c2ccccc2)c1,inactive: 1.23%
18,CCn1c(CC(=O)Nc2ccccc2F)nnc1SCC(=O)N1CCOCC1,inactive: 18%
19,Cc1cccc(N=Cc2[nH]c3ccc(Br)c(Cl)c3c2O)c1,inactive: 10%
20,COc1ccc(CNCCC2(O)CC(C)N(C)CC2C)cc1OC (configuration not stated),inactive: 6.59%
21,CC1CCc2c(sc3nc(C(C)(C)C)nc(N4CCN(C(=O)CCl)CC4)c23)C1 (configuration not stated),inactive: -86.2%
22,Cc1ccc(S(=O)(=O)Nc2ccc(-c3nnc(SCc4ccccc4Cl)o3)cc2)cc1,inactive: 19.4%

row,SMILES,growth rescue (activation)
1,COc1ccc(C(=O)N2CCC(C(=O)NC3CC3)CC2)cc1,inactive: 5.82%
2,Cc1sc2ncnc(Nc3ccc(O)cc3)c2c1C,inactive: -29.7%
3,CSc1nnc(NC(=O)c2nc(S(=O)(=O)Cc3ccccc3)ncc2Cl)s1,inactive: 3.43%
4,CCC(CC)c1nnc(NC(=O)CCc2ccccc2OC)s1,inactive: 12.3%
5,COC(=O)[C@H](CCSC)NC(=O)Nc1ccc(OC)c(Cl)c1,inactive: 26.8%
6,CCOC(=O)C1=C(C)NC(=O)NC1c1cccs1 (configuration not stated),inactive: -2.36%
7,CCOc1cc(N2CCOCC2)c(OCC)cc1NC(=O)c1ccc(OC)c(S(=O)(=O)N2CCOCC2)c1,inactive: -1.23%
8,COCCn1c(SCC(=O)NC2CCCC2)nc2ccccc2c1=O,inactive: 6.4%
9,O=C(COc1ccccc1Cl)NCCCNC(=O)c1ccncc1,inactive: 8.24%
10,CCOC(=O)Nc1ccc2c(COC(=O)CNS(=O)(=O)c3cccc(Br)c3)cc(=O)oc2c1,inactive: 17.6%
11,N#Cc1c(F)cccc1N1CCOCC1,inactive: 4.78%
12,CCSc1ccc(-c2cc(NC=O)c3ncc(-c4cccc(C(=O)N(C)C)c4)n3c2)cc1,inactive: 17.3%
13,CC(=O)Oc1ccc2oc(=O)c3c(c2c1)CCCN3C(=O)CN1CCOCC1,inactive: 0.58%
14,COc1ccc2cc(C3(C)NC(=O)N(CC(=O)N4CCCCC4)C3=O)ccc2c1 (configuration not stated),inactive: 3.5%
15,CCN(CC)S(=O)(=O)c1ccc(N2CCOCC2)c(NC(=O)c2ccc(C#N)cc2)c1,inactive: -2.55%
16,Cc1cc(OCC(=O)NC2CCN(C)CC2)ccc1[N+](=O)[O-],inactive: 14.7%
17,CCOc1ccc2nc(SCC(=O)NC3CCCCC3)[nH]c2c1,inactive: 9.83%
18,Cc1nc2ccc(NC(=S)NCCCO)cc2nc1C,inactive: 13.1%
19,O=C1Nc2ccc([N+](=O)[O-])cc2OC1CCN1CCN(Cc2ccccc2)CC1 (configuration not stated),inactive: -14.4%
